Measurements reported in PubChem BioAssay AID504841 (National Center for Advancing Translational Sciences (NCATS), 2011).
Where “and” joins values, the source holds several entries; their conditions need not be identical. Identical values can stand only once. Among all 1,100 compounds or so, about 160 (15%) were called active. The shares of active, inactive and inconclusive entries below differ from those in the screen. The call rests on the fitted dose curve; in most records, active means well fitted inhibition curve with a large enough effect; inconclusive means small, poorly fitted or top-dose-only effect; inactive means no such curve, though single readings can be large or run the other way. A potency beside an inconclusive call is a rough fit, not a confirmed value.

Target: ATP-dependent DNA helicase Q1 (Homo sapiens) (UniProt P46063)
Chain of UniProt P46063 (P46063 whole entry, looked up): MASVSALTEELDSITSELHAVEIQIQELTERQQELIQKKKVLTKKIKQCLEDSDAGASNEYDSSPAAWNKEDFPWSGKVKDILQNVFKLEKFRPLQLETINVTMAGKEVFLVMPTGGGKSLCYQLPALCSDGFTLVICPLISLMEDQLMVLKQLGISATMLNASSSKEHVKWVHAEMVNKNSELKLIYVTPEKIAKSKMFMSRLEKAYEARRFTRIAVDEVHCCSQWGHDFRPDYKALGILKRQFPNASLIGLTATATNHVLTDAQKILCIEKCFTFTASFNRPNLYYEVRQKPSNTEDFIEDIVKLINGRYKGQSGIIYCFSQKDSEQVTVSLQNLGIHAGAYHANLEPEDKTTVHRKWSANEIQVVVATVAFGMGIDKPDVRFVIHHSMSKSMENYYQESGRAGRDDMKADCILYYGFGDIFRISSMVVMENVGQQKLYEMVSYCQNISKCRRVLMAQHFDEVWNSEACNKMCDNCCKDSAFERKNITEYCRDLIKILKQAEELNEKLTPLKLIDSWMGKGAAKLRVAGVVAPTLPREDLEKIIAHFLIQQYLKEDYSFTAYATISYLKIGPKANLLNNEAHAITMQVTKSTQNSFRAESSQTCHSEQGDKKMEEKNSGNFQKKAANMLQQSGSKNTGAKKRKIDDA
Assay: Confirmation qHTS Assay for Inhibitors of RecQ-Like Dna Helicase 1 (RECQ1) - Round 2 Cherry Picks; further: nearly all actives have a fitted effect of over 50% in size
Details: recombinant RECQ1 DNA unwinding, red fluorescence; series mostly up to 119 µM
Procedure, shortened: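 RECQ1T1 (50 nM) was preincubated 15 min at room temperature with compounds in Tris pH 8.0 buffer with 2.5 ug/ml poly(dI-dC). Unwinding of 200 nM TAMRA/BHQ-2 forked duplex with 2 mM ATP was read twice, 2 h apart, normalized to enzyme-free and DMSO controls.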
Potency means the concentration at half of the fitted maximal effect; tags describe the fitted curve by direction and shape.

Row | Compound | Potency
1 | O=C(O)c1ccc(N2C(=O)c3cccc4c(C(=O)O)ccc(c34)C2=O)cc1 | inconclusive: 22.4 µM [inhibitor, full curve]
2 | CN(CCC#N)C(=O)COC(=O)c1c2c(nc3ccccc13)/C(=C/c1ccco1)CC2 | inconclusive: 44.7 µM [inhibitor, partial curve]
3 | Cn1nnc(NC(=O)c2ccc(C(C)(C)C)cc2)n1 | inactive
4 | O=C1N/C(=N/NC(=O)c2cccc3ccccc23)S/C1=C\c1ccccc1OCc1ccccc1 | inconclusive: 31.6 µM [inhibitor, partial curve]
5 | COc1cc(/C=C/C(=O)Nc2nc3ccc(S(=O)(=O)N(C)C)cc3s2)cc(OC)c1OC | active: 2.24 µM
6 | COc1ccc(S(=O)(=O)NCc2ccc3c(c2)cc(C)n3C)cc1 | inconclusive: 50.1 µM [inhibitor, partial curve]
7 | O=C(/C=C/c1ccco1)NCC1OCCc2ccccc21 (stereo not given) | active: 6.31 µM
8 | CN1/C(=C\C(=O)COC(=O)Cn2nnc(-c3ccccc3)n2)C(C)(C)c2ccccc21 | active: 44.7 µM
9 | O=[N+]([O-])c1ccc(Sc2cccc[n+]2[O-])c2nonc12 | active: 25.1 µM
10 | O=C(N/C=C/c1ccco1)NCc1ccccc1 | inactive
11 | CCCCCCOC1(c2ccccc2)OC(=O)c2ccccc21 (stereo not given) | inactive
12 | COc1ccc2[nH]cc(CCNc3ncnc4ccc(-c5ccoc5)cc34)c2c1 | inconclusive: 35.5 µM [inhibitor, partial curve, poor fit]
13 | COc1ccccc1NC(=S)NC(=O)/C=C/c1ccco1 | inconclusive: 44.7 µM [inhibitor, partial curve, poor fit]
14 | COCCCNc1c2c3c(cccc3[nH]c1=O)C(=O)c1ccccc1-2 | active: 56.2 µM
15 | COc1c(O)cc2oc(-c3ccc(O)c(O)c3)cc(=O)c2c1O | active: 4.47 µM and active: 2 µM
16 | S=C(Nc1ccc2nsnc2c1)N1CCCC1 | inactive
17 | Cc1c(C(=O)NCc2ccc3c(c2)cc(C)n3C)cccc1[N+](=O)[O-] | inactive
18 | Cc1cnc(CNc2nc(-c3ccc(N(C)C)cc3)nc3ccccc23)cn1 | inconclusive: 28.2 µM [inhibitor, full curve]
19 | CCOC(=O)C(=CNc1ccc(-c2ccco2)c(Cl)c1)C(=O)OCC | inactive
20 | Cc1ccc(C(CCN(Cc2ccccc2)C(=O)c2ccco2)c2ccco2)cc1 (stereo not given) | inconclusive: 39.8 µM [inhibitor, partial curve]
21 | O=c1nc2s/c(=C\c3ccco3)c(=O)n2nc1Cc1ccc(F)cc1 | inconclusive: 63.1 µM [inhibitor, partial curve, poor fit]
22 | CSc1nc(NCCOCCO)c2sc3nc(-c4ccco4)c4c(c3c2n1)CCC4 | inconclusive: 56.2 µM [inhibitor, partial curve, poor fit]
23 | O=C1CCCC2=C1C(c1ccco1)Nc1ccc3ccccc3c12 (stereo not given) | active: 15.8 µM

Row | Compound | Potency
24 | COC(=O)c1ccccc1NC(=O)c1noc2c1CCC2 | inconclusive: 44.7 µM [inhibitor, partial curve, poor fit]
25 | CS(=O)(=O)N1CCN(c2ccc([N+](=O)[O-])c(NCc3ccc(Cl)cc3)c2)CC1 | inconclusive: 50.1 µM [inhibitor, partial curve]
26 | Cc1ccc(C(=O)c2c(C)oc3c2C(=O)C(=O)c2ccccc2-3)cc1 | active: 56.2 µM
27 | CCN(CC)S(=O)(=O)c1ccc(N2CCOCC2)c(NC(=O)c2c3c(nc4ccccc24)CCC3)c1 | inconclusive: 63.1 µM [inhibitor, partial curve, poor fit]
28 | COc1ccc(Cl)cc1C(=O)NNC(=S)NC(=O)/C=C/c1ccco1 | inactive
29 | O=C1C=C(O)C(n2cncn2)C(c2ccc3c(c2)OCO3)C1 (stereo not given) | inactive
30 | COc1ccc(C(CC(=O)N2CCCC2)c2c(OC)cc(OC)c3c(-c4ccccc4)cc(=O)oc23)cc1 (stereo not given) | active: 20 µM
31 | Cc1ccc(Cc2cnc(N)s2)o1 | inactive
32 | CCc1ccc2nc3sc(C(=O)Nc4nnc(CC)s4)c(N)c3cc2c1 | active: 39.8 µM
33 | Cc1nc(C)c(C(=O)Nc2ncc([N+](=O)[O-])s2)o1 | inconclusive: 31.6 µM [inhibitor, full curve]
34 | CCOC(=O)Cc1cc(=O)c2c(=O)n(-c3ccccc3)[nH]c2[nH]1 | inactive
35 | CCOC(=O)Cc1csc(SCC(=O)Nc2sc3c(c2C(N)=O)CCC3)n1 | inconclusive: 56.2 µM [inhibitor, partial curve]
36 | N=C1/C(=C\c2coc3ccccc3c2=O)C(=O)N=C2SC(c3ccncc3)=NN12 | inconclusive: 11.2 µM [inhibitor, full curve]
37 | CCCCOC(=O)c1ccc(NC(c2ccc(C)cc2)P(=O)(OC)OC)cc1 (stereo not given) | inactive
38 | O=C(Nc1cccc(S(=O)(=O)NC2=NCCCCC2)c1)c1cc(-c2ccco2)nc2ccccc12 | inconclusive: 63.1 µM [inhibitor, partial curve, poor fit]
39 | C=CCn1c(SCC(=O)c2ccc(O)c(O)c2)nnc1-c1cccnc1 | active: 3.55 µM
40 | COCCOC(=O)c1[nH]c2c(c1C)C(=O)CC(c1ccco1)C2 (stereo not given) | inconclusive: 11.2 µM [inhibitor, full curve]
41 | COc1ccc(NC(=O)CN(c2ccccc2)S(=O)(=O)N(C)C)cc1OC | inconclusive: 56.2 µM [inhibitor, partial curve]
42 | Cc1ccc(NC2=Nc3ccccc3N3C2=Nc2c(c(C)nn2-c2ccccc2)C3c2ccc(O)c(O)c2)cc1 (stereo not given) | inconclusive: 50.1 µM [inhibitor, partial curve]
43 | CCCCC/C=C/C=C1/C(=O)C=C[C@@H]1C/C=C\CCCC(=O)O | inconclusive: 1.12 µM [inhibitor, full curve] and inconclusive: 15.8 µM [inhibitor, full curve]
44 | COCCn1c(C)cc(C(=O)COC(=O)c2cc3c(s2)CCC3)c1C | inconclusive: 44.7 µM [inhibitor, partial curve]
45 | COC(=O)c1cc2c(-c3ccccc3)cc3ccccn3c-2c1C(=O)OC | active: 79.4 µM
